From PubChem BioAssay AID1159614 (National Center for Advancing Translational Sciences (NCATS), 2016)
About 65 (0.1%) of roughly 45,000 compounds were called active. Calls follow the shape of the dose curve; as a rule, active = well fitted activation curve with a large enough effect; inconclusive = small, poorly fitted or top-dose-only effect; inactive = no such curve, though single readings can be large or run the other way. The list shows a part of the results.

Target: Galactocerebrosidase (Homo sapiens) (UniProt P54803)
Test: A Novel Cell-Based Assay to Identify Small Molecules for B -Galactocerebrosidase; also: 0% is about no effect; nearly all actives have a fitted effect of over 65% in size
Settings: 145M-Twi-hGALC-G270D cells (Twitcher mouse brain line with human GALC G270D), HMU-beta-Gal fluorescence, 48 h; series mostly up to 57.5 µM; activation: at the top concentration
Method in brief: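 Live 145M-Twi cells (Twitcher mouse brain-derived, GALC-null) stably expressing human GALC-G270D, with a wild-type GALC line, were compound-treated. Residual GALC activity was then read as fluorescence from 0.1 mM final HMU-β-gal at pH 5.2; higher signal means activation.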

Chain of UniProt P54803 (P54803 whole entry, looked up): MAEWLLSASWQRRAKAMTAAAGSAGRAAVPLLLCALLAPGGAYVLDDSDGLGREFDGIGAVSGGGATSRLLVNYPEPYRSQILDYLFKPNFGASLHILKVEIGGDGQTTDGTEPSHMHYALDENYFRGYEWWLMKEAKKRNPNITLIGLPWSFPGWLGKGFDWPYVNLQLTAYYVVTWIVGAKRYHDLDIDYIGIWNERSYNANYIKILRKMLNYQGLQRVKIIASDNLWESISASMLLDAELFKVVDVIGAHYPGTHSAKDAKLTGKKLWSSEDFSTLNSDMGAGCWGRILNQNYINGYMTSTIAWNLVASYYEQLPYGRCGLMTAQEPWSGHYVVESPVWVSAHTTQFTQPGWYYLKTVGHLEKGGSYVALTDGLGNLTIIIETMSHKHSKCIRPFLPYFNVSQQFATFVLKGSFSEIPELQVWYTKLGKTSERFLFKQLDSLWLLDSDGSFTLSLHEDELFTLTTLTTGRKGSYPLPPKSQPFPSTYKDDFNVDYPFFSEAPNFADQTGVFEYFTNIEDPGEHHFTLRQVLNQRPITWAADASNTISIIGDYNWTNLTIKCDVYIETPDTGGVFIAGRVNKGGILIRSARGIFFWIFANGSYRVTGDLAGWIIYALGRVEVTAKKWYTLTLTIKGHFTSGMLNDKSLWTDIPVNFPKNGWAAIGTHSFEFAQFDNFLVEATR

activation, inactive:
CCN(CC)c1ccc(NC(=O)CSc2nc(-c3cccs3)cc(C(F)(F)F)n2)cc1 -14%
CC(C)c1ccc(OC(=O)c2cc(-c3ccccc3)on2)cc1 -19%
COc1ccc(Cn2c(=O)c3oc4ccccc4c3n(CC(=O)Nc3ccc(F)cc3F)c2=O)cc1 -8.65%
O=C(NCCc1ccccc1Cl)c1ccc2c(c1)nc1n2CCCCC1 -2.59%
CCN(CC)c1ccc(-c2nc(-c3ccccc3C)no2)cc1[N+](=O)[O-] -24.8%
Cc1ccc(C)c(Cn2c(C3CC(=O)N(c4ccccc4C)C3)nc3ccccc32)c1 (stereo not drawn) -41.9%
CC1=C(C(=O)Nc2ccccc2)C(c2cccn2C)n2ncnc2N1 (stereo not drawn) -21.9%
Cc1ccc(Nc2nc(C)nc(N)c2S(=O)(=O)c2ccccc2)cc1 -4.34%
Cc1ccc(CNC(=O)CSc2n[nH]c(-c3ccc(F)cc3)n2)cc1 -26.6%
O=S(=O)(c1ccc2nc(N3CCN(c4cccc(Cl)c4)CC3)ccc2c1)N1CCCCC1 -6.12%
Cc1cc(NC(=O)C2CCN(S(=O)(=O)c3ccc(Br)s3)CC2)ccc1Br 0.823%
Cc1ccc(Cl)cc1N1CCN(Cc2nnc(-c3ccc4c(c3)OCO4)o2)CC1 -12.6%
COc1cc2c(=O)n(CCC(=O)NCC3CCCO3)c(=O)n(CC(=O)Nc3ccc(C)c(C)c3)c2cc1OC (stereo not drawn) -0.547%
CCC(C)NC(=O)c1nn(-c2ccc(C)cc2)c(=O)n(C)c1=O (stereo not drawn) -14%
COc1ccc(-c2cc(C(F)(F)F)n3nc(C(=O)Nc4ccccc4SC)cc3n2)cc1OC -9.96%
Cc1ccc(OCC(=O)N(Cc2ccco2)Cc2ccc(C)o2)cc1 10.5%
CCOc1ccccc1NC(=O)c1cnn2c(C(F)F)cc(-c3ccccc3)nc12 -9.54%
COCCCNC(=O)C1CCN(c2nn3cc(-c4ccc(F)cc4)nc3s2)CC1 -10.5%
COc1cccc(CCNC(=O)c2c(O)nc3ccccn3c2=O)c1 -9.54%
CC(C)c1cccc(OCCn2c(-c3ccc(Cl)cc3)nc3ccccc3c2=O)c1 -14.6%
Cc1ccccc1C(=O)OCc1cc(=O)n2nc(-c3cccs3)sc2n1 2.16%
Cc1ccc(C)c(NC(=O)c2cc(S(=O)(=O)N3CCCCCC3)ccc2F)c1 -8.48%
CN(C)CCN(Cc1ccco1)C(=O)c1oc2ccccc2c1NC(=O)c1ccccc1 -7.42%
CC1=C(C(=O)Nc2ccccc2)C(c2cccs2)n2nc(SCc3ccccc3F)nc2N1 (stereo not drawn) -0.917%
O=C(Nc1cc(F)ccc1F)N1CCC(CN2CCCC2)CC1 -6.87%
CN(C)[C@@H]1C(=O)C(C(N)=O)=C(O)[C@@]2(O)C(=O)C3=C(O)c4c(O)ccc(Cl)c4[C@@H](O)[C@H]3C[C@@H]12 -13.5%
CN1C(=O)Cc2cc(S(=O)(=O)CCC(=O)Nc3ccc(F)c(Cl)c3)ccc21 -8.1%
O=C(CSc1nnc(NC(=O)Nc2ccccc2)s1)Nc1cccc(F)c1 -2.84%
Cn1cc(S(=O)(=O)c2cccc(Cl)c2)c(=O)c2cc(F)c(N3CCN(c4ccccc4)CC3)cc21 -16.5%
Cc1ccc2c(=O)c(C(=O)c3cccc(Cl)c3)cn(CC(=O)Nc3ccc4c(c3)OCCO4)c2n1 -12.7%
COc1ccc(CCCc2nnc(SCC(=O)Nc3ccc(OC)cc3)o2)cc1 -5.6%
CCCc1nn2c(=O)cc(COC(=O)c3ccccc3NC(=O)c3ccc(Cl)cc3)nc2s1 -16.9%
CCc1ccccc1Nc1cc(C(=O)NC(C)c2ccccc2)c2ccccc2n1 (stereo not drawn) -10.7%
COc1cc(C2c3c(-c4cc(C)ccc4O)n[nH]c3C(=O)N2CCCO)ccc1OCCC(C)C (stereo not drawn) -18.8%
CCOC(=O)c1cccc(NC(=O)CCn2nc(C)c(S(=O)(=O)N3CCCCC3)c2C)c1 -18%
CCCC(=O)Nc1ccc(-c2nc3ncccc3o2)cc1C -19.5%
Cc1ccc(NC(=O)C(C)Sc2nc(=O)cc(N)n2-c2ccccc2)cc1 (stereo not drawn) 23.2%
CCOC(=O)c1ccccc1NC(=O)N1CCC(CN2CCCCC2)CC1 -15.5%
CCOc1ccc(NC(=O)CN2CCCN(Cc3cc(C)ccc3C)S2(=O)=O)cc1 -25.7%
COc1ccc2c(c1)CCCC2=O -10.9%
COCCNC(=O)c1cccc(-n2c(C)nc3cccnc32)c1 -0.375%
Cc1nc(-c2cccnc2)sc1CCNS(=O)(=O)c1ccc(F)cc1 4.78%
COc1ccc2c(CNCCc3ccco3)c(C(=O)O)n(Cc3ccccc3)c2c1 -7.1%
CCOc1ccc(NC(=O)C2CCN(c3nnc(-n4c(C)ccc4C)s3)CC2)cc1 -6.39%
COc1ccc(NC(=O)CSc2nc3ccccc3n2Cc2cccc(OC)c2)cc1 -18.6%
COc1cc(OC)cc(-n2c(=O)c3sccc3n(Cc3c(C)cc(C)cc3C)c2=O)c1 2.13%
Cc1ccc(NC(=O)c2cc(S(=O)(=O)N3CCc4ccccc43)ccc2F)cc1Cl -15.2%
COc1ccc(-c2cc(C(F)(F)F)nc(SCC(=O)NCCc3ccccc3)n2)cc1OC -20.9%
CCc1sc(Nc2cccc(C)c2C)nc1-c1cc2cccc(OC)c2oc1=O -9.57%
CCc1ccc(-n2c(=O)c3cccnc3n2CC(=O)Nc2cc(F)ccc2F)cc1 -20.4%
CCOC(=O)N1CCc2c(sc(NCc3cc(OC)c(OC)cc3OC)c2C(=O)Nc2ccc(OCC)cc2)C1 -14.1%
CCN(CC)C(=O)Cn1cc(SCC(=O)Nc2ccccc2C)c2ccccc21 -16.3%
CC(=O)Oc1cc2c(s1)CCN(C(C(=O)C1CC1)c1ccccc1F)C2 (stereo not drawn) -0.925%
CCOC(=O)c1cccc(NC(=O)NCc2ccc3c(c2)CCN3C(=O)c2ccccc2)c1 -11.3%
Cc1cccc(-c2nc(SCCCOc3ccc(Cl)c(C)c3)n3[nH]c(=O)cc3n2)c1 -7.17%
CCOC(=O)c1ccc(-c2ccc(/C=C(\C#N)C(=O)Nc3ccc(OCC)cc3)o2)cc1 -8.48%
CC(O)CCCCn1c(=O)c2c(ncn2C)n(C)c1=O (stereo not drawn) -14.6%
CCN1CCN(c2ncc3c(n2)CCN(Cc2ccc(OC(C)C)cc2)C3)CC1 -7.88%
CCc1nn(Cc2cc(C)ccc2C)c(=O)c2cc3cc(C)ccc3n12 -3.39%
CCOC(=O)c1c(S(=O)(=O)NCC(=O)Nc2cc(C)ccc2C)c(C)n(C)c1C 6.52%
Cc1ccc(NS(=O)(=O)c2ccc3c(c2)CCCN3C(=O)C2CCC2)c(C)c1 -13.9%
COc1ccc(C2(CNC(=O)C(=O)Nc3ccc(F)cc3)CCCC2)cc1OC -27%
COC(=O)c1nnn(-c2cccc(C)c2)c1C(=O)OC -20.6%
CCCSc1nc2sc3c(c2c(=O)n1Cc1ccccc1)CC(C)(CC)OC3 (stereo not drawn) -3.53%
Cc1ccc(NC(=O)C2CCC(CNS(=O)(=O)c3csc(C(N)=O)c3)CC2)cc1Cl (stereo not drawn) -13.3%
COc1ccc(Cl)cc1-n1nnc(-c2nsc(NC(=O)c3ccccc3Cl)n2)c1C -10.6%
CCc1ccccc1NC(=O)C(=O)NCC(c1cccnc1)N1CCN(c2ccccc2F)CC1 (stereo not drawn) -11.9%
COc1ccc(N2CCN(C(=O)c3cc4c(s3)-c3ccccc3OC4)CC2)cc1 21.5%
Cc1ccc(-c2cn3c(n2)sc2cc(C(=O)NC(C)C45CC6CC(CC(C6)C4)C5)ccc23)cc1 (stereo not drawn) 0.137%
CCOC(=O)C1CCN(S(=O)(=O)c2csc(C(N)=O)c2)CC1 -12.3%
COc1ccc(N2CC(NC(=O)c3ccc(Br)o3)CC2=O)cc1 (stereo not drawn) 4.47%
CCc1nn2c(=O)cc(COC(=O)c3ccco3)nc2s1 -5.27%
CCOc1ccc(C(=O)NCCS(=O)(=O)N2CCN(c3ccccc3F)CC2)cc1OCC -15.2%
Cc1cc(Cl)ccc1NC(=O)CN(c1ccccc1Br)S(C)(=O)=O -3.34%
COc1ccc(CN2CCN(c3ncnc4sc5c(c34)CC(C)CC5)CC2)cc1F (stereo not drawn) -19.5%
Cc1ccccc1C(=O)Nc1nc(-c2nnn(-c3ccc(C(C)C)cc3)c2C)ns1 9.87%
O=C(Cn1ncc2c([nH]c3ccccc32)c1=O)NCC1CCN(Cc2ccc(F)cc2)CC1 0.731%
CCOc1ccccc1CNC(=O)C1CCN(S(=O)(=O)c2ccc3c(ccn3C)c2)CC1 -9.03%
C[C@H]1O[C@@H](O[C@H]2CC[C@@]3(C)[C@H](CC[C@@H]4[C@@H]3C[C@@H](O)[C@]3(C)[C@@H](C5=CC(=O)OC5)CC[C@]43O)C2)C[C@H](O)[C@@H]1O[C@H]1C[C@H](O)[C@H](O[C@H]2C[C@H](O)[C@H](O[C@@H]3O[C@H](CO)[C@@H](O)[C@H](O)[C@H]3O)[C@@H](C)O2)[C@@H](C)O1 -15.7%
COc1ccccc1N1CCN(CCCNC(=O)c2cnn(-c3ccccc3)c2C2CCN(C(=O)OC(C)(C)C)CC2)CC1 1.62%
CC1=C(C(=O)NCc2ccc(Cl)cc2)C2(CCCCC2)OC1=O -15.3%
Cc1ccc(/C=C/c2onc(C)c2S(=O)(=O)N2CCC(C(=O)NCC(C)c3ccccc3)CC2)cc1 (stereo not drawn) 0.737%
CC(C)C(=O)Nc1ccc([N+](=O)[O-])c(C(F)(F)F)c1 -12.4%
CCn1cc(S(=O)(=O)c2cccc(Cl)c2)c(=O)c2cc(F)c(N3CCN(c4ccccc4)CC3)cc21 2.8%
Cc1ccc(C)n1-c1nnc(N2CCCC(C(=O)NCc3cccc(Cl)c3)C2)s1 (stereo not drawn) -10.8%
CCc1ccc(-n2c(Cc3ccccc3)nnc2SCc2nc(-c3cccs3)no2)cc1 -32.4%
COc1ccc(NS(=O)(=O)c2ccc3[nH]c4c(c3c2)CCCC4)cc1Cl -14.3%
Cc1ccc(CN2C(=O)c3oc4ccc(C)cc4c(=O)c3C2c2ccc(O)cc2)cc1 (stereo not drawn) -21.2%
COc1cc(OC)c(NC(=O)Cn2c(=O)oc3cc(S(=O)(=O)N4CCCC4)ccc32)cc1Cl -5.56%
Cc1ccc(Cl)cc1N1CCN(S(=O)(=O)c2ccc3c(c2)CCCN3C(=O)C2CCC2)CC1 21.8%
CCCCCn1c(-c2ccc(OC)c(OC)c2)nc2ccccc21 -17.4%
O=C(NCCc1ccccc1)c1cc(Sc2cccc(Cl)c2)nc2ccccc12 -11.9%
Cc1c(-c2nsc(NC(=O)c3ccccc3)n2)nnn1-c1ccc(C(F)(F)F)c(Cl)c1 -9.18%
